Experimental data: the antibiotic and cytotoxicity screens of Wong et al. (2023)
The list shows a part of the results.

The compounds below were run on HSkMC (human skeletal muscle cells) (assay: cytotoxicity call (relative viability < 0.9)). Details: 10 µM.

**Q.** For COc1cc2c(cc1OC)C(=O)NCC2, which cytotoxicity call is on record?
**A.** inactive

**Q.** With Cc1ccc(C(=O)Nc2ccc(S(=O)(=O)O)c3cc(S(=O)(=O)O)cc(S(=O)(=O)O)c23)cc1NC(=O)c1cccc(NC(=O)Nc2cccc(C(=O)Nc3cc(C(=O)Nc4ccc(S(=O)(=O)O)c5cc(S(=O)(=O)O)cc(S(=O)(=O)O)c45)ccc3C)c2)c1 as the compound, how does the cytotoxicity call read?
**A.** inactive

**Q.** For CN1CCN(C(=O)[C@@H]2[C@@H](CO)[C@@H]3Cn4c(ccc(-c5cncnc5)c4=O)[C@@H]3N2CC2CC2)CC1, which cytotoxicity call is on record?
**A.** inactive

**Q.** C[C@@H]1CN([C@@H](C)CO)C(=O)c2cc(NC(=O)Nc3ccccc3)ccc2O[C@@H]1CN(C)C(=O)Nc1ccc(C(F)(F)F)cc1 was tested. Which cytotoxicity call did it give?
**A.** inactive

**Q.** C[C@@H]1CN([C@H](C)CO)C(=O)c2cccc(NC(=O)c3nc4ccccc4s3)c2O[C@H]1CN(C)Cc1ccc(Cl)c(Cl)c1 was tested. Which cytotoxicity call did it give?
**A.** inactive

**Q.** How did the cytotoxicity call turn out when C[C@@H]1CN([C@@H](C)CO)C(=O)Cc2cc(NC(=O)Cc3ccccc3)ccc2O[C@@H]1CN(C)S(=O)(=O)c1ccccc1 was run?
**A.** inactive

**Q.** Which cytotoxicity call does the source give for COc1ccc(NC(=O)N(C)C[C@H]2Oc3ccc(NC(=O)CCCN(C)C)cc3C(=O)N([C@H](C)CO)C[C@H]2C)cc1 here?
**A.** inactive

**Q.** With CCS(=O)(=O)N1C[C@]2(C1)CN([C@H](CO)c1[nH]c3cc(ccc3c12)OC)C(=O)Nc1c(noc1C)C as the compound, how does the cytotoxicity call read?
**A.** inactive

**Q.** Which cytotoxicity call does the source give for COc1ccc(S(=O)(=O)Nc2ccc3c(c2)C(=O)N([C@H](C)CO)C[C@H](C)[C@H](CN(C)Cc2ccc(C(F)(F)F)cc2)OCCCC[C@@H](C)O3)cc1 here?
**A.** inactive

**Q.** CON=C(C(=O)NC1C(=O)N2C(C(=O)OC(C)OC(C)=O)=C(COC(N)=O)CSC12)c1ccco1 (stereo not given) was tested. Which cytotoxicity call did it give?
**A.** inactive

**Q.** Cc1noc(C)c1NC(=O)N(C)C[C@H]1OCCCC[C@@H](C)Oc2ccc(NC(=O)Nc3ccc4c(c3)OCO4)cc2C(=O)N([C@H](C)CO)C[C@@H]1C was tested. Which cytotoxicity call did it give?
**A.** inactive

**Q.** Which cytotoxicity call does the source give for C[C@H]1CCCCO[C@H](CN(C)Cc2ccc(Cl)c(Cl)c2)[C@@H](C)CN([C@@H](C)CO)C(=O)c2cc(NC(=O)Nc3ccc(F)cc3)ccc2O1 here?
**A.** inactive

**Q.** For Cc1ccc(S(=O)(=O)Nc2ccc3c(c2)C(=O)N([C@@H](C)CO)C[C@H](C)[C@H](CN(C)Cc2ccccc2)OCCCC[C@@H](C)O3)cc1, which cytotoxicity call is on record?
**A.** inactive

**Q.** Which cytotoxicity call does the source give for C[C@@H]1CN([C@@H](C)CO)C(=O)c2cc(NC(=O)Nc3cccc4ccccc34)ccc2O[C@@H](C)CCCCO[C@H]1CN(C)C(=O)NC1CCCCC1 here?
**A.** inactive

**Q.** For C[C@@H]1CCCCO[C@H](CN(C)Cc2ccc(Cl)c(Cl)c2)[C@@H](C)CN([C@@H](C)CO)C(=O)c2cc(NS(=O)(=O)c3cn(C)cn3)ccc2O1, which cytotoxicity call is on record?
**A.** inactive

**Q.** Clc1ccc(/C=N/Cc2ccc(-c3cccs3)s2)cc1 was tested. Which cytotoxicity call did it give?
**A.** inactive

**Q.** For C[C@@H]1CCCCO[C@H](CN(C)C(=O)Nc2ccc3c(c2)OCO3)[C@@H](C)CN([C@@H](C)CO)C(=O)c2cc(NC(=O)Cc3ccccc3)ccc2O1, which cytotoxicity call is on record?
**A.** inactive

**Q.** C=CCOC(=O)[C@@H]1[C@H]2C(=O)O[C@H](c3ccccc3)[C@H](c3ccccc3)N2[C@H](c2ccc(OCCOC(=O)[C@H]3C[C@H]4C(=O)N5CCC[C@H]5C(=O)N4[C@H]3c3ccc(O)cc3)cc2)[C@@]12C(=O)Nc1ccc(I)cc12 was tested. Which cytotoxicity call did it give?
**A.** inactive

**Q.** For O=c1cc(-c2ccccc2)oc2ccccc12, which cytotoxicity call is on record?
**A.** inactive

**Q.** How did the cytotoxicity call turn out when C[C@@H]1CN([C@@H](C)CO)C(=O)c2cc(NC(=O)Nc3ccccc3)ccc2O[C@@H](C)CCCCO[C@@H]1CN(C)S(=O)(=O)c1ccccc1 was run?
**A.** inactive

**Q.** With COc1cccc(S(=O)(=O)Nc2ccc3c(c2)OC[C@H](C)N(C(=O)Cc2cccnc2)C[C@H](C)[C@@H](OC)CN(C)C3=O)c1 as the compound, how does the cytotoxicity call read?
**A.** inactive

**Q.** CN1CC(=O)N=C1NC(=O)[C@H]1CCCN(S(=O)(=O)c2ccc3c(c2)oc(=O)n3C)C1 was tested. Which cytotoxicity call did it give?
**A.** inactive

**Q.** COCC#Cc1cnc2c(c1)C(=O)N([C@H](C)CO)C[C@@H](C)[C@H](CN(C)S(=O)(=O)c1cccc(OC)c1)O2 was tested. Which cytotoxicity call did it give?
**A.** inactive

**Q.** Which cytotoxicity call does the source give for COc1ccc(S(=O)(=O)N(C)C[C@@H]2Oc3ccc(NC(=O)Nc4cc(Cl)cc(Cl)c4)cc3CC(=O)N([C@@H](C)CO)C[C@@H]2C)cc1Cl here?
**A.** active

**Q.** For C[C@@H]1CN([C@H](C)CO)S(=O)(=O)c2ccc(-c3cncnc3)cc2O[C@H]1CN(C)C(=O)Cc1ccccc1, which cytotoxicity call is on record?
**A.** inactive

**Q.** How did the cytotoxicity call turn out when C[C@H]1CN([C@@H](C)CO)C(=O)c2cc(NS(C)(=O)=O)ccc2O[C@@H]1CN(C)Cc1ccc2c(c1)OCO2 was run?
**A.** inactive

**Q.** For Cc1ccc(S(=O)(=O)N(C)C[C@@H]2OCCCC[C@H](C)Oc3ccc(NC(=O)CCCCCC(=O)Nc4ccccc4N)cc3C(=O)N([C@H](C)CO)C[C@@H]2C)cc1, which cytotoxicity call is on record?
**A.** inactive

**Q.** For Cc1ncc(C[n+]2csc(CCO)c2C)c(N)n1.Cl.[Cl-], which cytotoxicity call is on record?
**A.** inactive

**Q.** How did the cytotoxicity call turn out when C[C@@H]1CN([C@H](C)CO)C(=O)c2cc(NC(=O)CCC(F)(F)F)ccc2O[C@@H](C)CCCCO[C@H]1CN(C)Cc1ccc(Cl)c(Cl)c1 was run?
**A.** active

**Q.** For COc1ccc(NC(=O)N(C)C[C@@H]2OCCCC[C@H](C)Oc3ccc(NC(=O)c4ccncc4)cc3C(=O)N([C@@H](C)CO)C[C@@H]2C)cc1, which cytotoxicity call is on record?
**A.** inactive

**Q.** With COc1ccc(CN(C)C[C@H]2OCCCC[C@@H](C)Oc3ccc(NC(=O)Nc4ccccc4)cc3C(=O)N([C@@H](C)CO)C[C@@H]2C)cc1 as the compound, how does the cytotoxicity call read?
**A.** inactive

**Q.** How did the cytotoxicity call turn out when COc1ccc(S(=O)(=O)Nc2ccc3c(c2)C(=O)N([C@@H](C)CO)C[C@H](C)[C@@H](CN(C)C(=O)c2ccccc2)OCCCC[C@H](C)O3)cc1 was run?
**A.** inactive

**Q.** For Cc1ccccc1S(=O)(=O)N1C[C@H](O)COC[C@H]2O[C@H](CC(=O)N3CCC(Cc4ccccc4)CC3)CC[C@@H]21, which cytotoxicity call is on record?
**A.** inactive

**Q.** C[C@@H]1CN([C@H](C)CO)C(=O)c2cc(NC(=O)NC3CCCCC3)ccc2O[C@H]1CN(C)Cc1ccc(Oc2ccccc2)cc1 was tested. Which cytotoxicity call did it give?
**A.** inactive

**Q.** For C[C@H](CO)N1C[C@H](C)[C@H](CN(C)Cc2ccc(-c3ccccc3)cc2)Oc2ccc(NC(=O)Nc3ccc(F)cc3)cc2CC1=O, which cytotoxicity call is on record?
**A.** active

**Q.** Which cytotoxicity call does the source give for Cc1noc(C)c1NC(=O)N(C)C[C@@H]1OCCCC[C@@H](C)Oc2ccc(NC(=O)Nc3ccc4c(c3)OCO4)cc2C(=O)N([C@@H](C)CO)C[C@H]1C here?
**A.** inactive

**Q.** For COc1ccc(NC(=O)N(C)C[C@@H]2OCCCC[C@@H](C)Oc3ccc(NC(=O)C4CCCCC4)cc3C(=O)N([C@H](C)CO)C[C@H]2C)cc1, which cytotoxicity call is on record?
**A.** inactive

**Q.** For CC(C)=CCC/C(C)=C/CC/C(C)=C/CC/C(C)=C/CO, which cytotoxicity call is on record?
**A.** inactive

**Q.** With C=C1CCC(O)CC1=CC=C1CCCC2(C)C1CCC2C(C)CCCC(C)C (stereo not given) as the compound, how does the cytotoxicity call read?
**A.** inactive

**Q.** How did the cytotoxicity call turn out when COc1ccc(CN(C)C[C@H]2Oc3c(NC(=O)CCCCCC(=O)Nc4ccccc4N)cccc3C(=O)N([C@@H](C)CO)C[C@@H]2C)cc1 was run?
**A.** inactive
